Measured values reported in PubChem BioAssay (NCATS).
Several values for one entry are separate records, joined by “and”; a condition that tells them apart may be missing. Equal values may be shown once. This list was built around the results that the source calls inconclusive (neither active nor inactive); the mix of calls is not that of the screen. A potency beside an inconclusive call is a rough fit, not a confirmed value. Activity calls are given as the source filed them. Calls come from the whole dose curve; as a rule, active = well fitted activation curve with a large enough effect; inconclusive = small, poorly fitted or top-dose-only effect; inactive = no such curve, though single readings can be large or run the other way.

What follows are molecules tested against Cellular tumor antigen p53 (Homo sapiens) (UniProt P04637) (assay: Primary qHTS for small molecule compounds that upregulate eGFP-tagged delta133p53alpha (in N-terminal) cells. (AID 2060322; note: nearly all actives have a fitted effect of over 75% in size;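 for activation: series mostly up to about 56 µM; 0% = DMSO vehicle and 100% = reference activator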)). Details: NCI-H358 eGFP-delta133p53alpha fluorescence, 24 h; activation: hits give high values.
Summary of the method: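 NCI-H358 cells pre-induced 24 h with 10 ng/ml doxycycline to express N-terminal eGFP-delta133p53alpha, then dosed 24 h at 37C without doxycycline; fixed, Hoechst-stained, GFP intensity by laser scanning cytometry, normalized to DMSO (0%) and 57.5 uM 5-azacytidine (100%).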
Potency is the fitted concentration of half-maximal effect; tags give direction and shape of the fitted curve.

Chain of UniProt P04637 (P04637 whole entry, looked up): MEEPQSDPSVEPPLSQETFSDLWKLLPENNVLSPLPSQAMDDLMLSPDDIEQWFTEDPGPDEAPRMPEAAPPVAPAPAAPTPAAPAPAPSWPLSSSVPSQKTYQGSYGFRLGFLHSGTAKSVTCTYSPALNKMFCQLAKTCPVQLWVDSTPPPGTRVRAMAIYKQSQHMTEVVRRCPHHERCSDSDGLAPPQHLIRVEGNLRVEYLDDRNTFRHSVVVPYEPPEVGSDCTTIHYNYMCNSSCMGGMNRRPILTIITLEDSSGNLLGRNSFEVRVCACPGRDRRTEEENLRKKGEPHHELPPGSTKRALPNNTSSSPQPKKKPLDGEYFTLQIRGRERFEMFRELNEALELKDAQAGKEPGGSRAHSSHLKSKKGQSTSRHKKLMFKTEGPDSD

`Nc1ccc(-c2cccc3c(=O)cc(N4CCOCC4)oc23)cc1` was tested. Which Potency did it give?
The Potency was inconclusive: 37.9 µM [activator, single point].

`CCN1CCN(Cc2ccc(-c3cc4c(NC(C)c5ccccc5)ncnc4[nH]3)cc2)CC1` (stereo not given) was tested. Which Potency did it give?
The Potency was active: 26.9 µM.

Which activation does the source give for `CC1CCN(c2cc(NC(=O)c3ccccc3)ncn2)CC1` here?
Its activation is inactive: 22.4%.

For `CCC(C)/C=C(C)/C=C/C1=CC2=C(Cl)C(=O)C(C)(OC(C)=O)C(=O)C2(O)C(OC)O1` (stereo not given), which Potency is on record?
The Potency was inconclusive: 11.7 µM [activator, single point].

For `CO[C@H]1C=CC=C(C)C(=O)NC2=CC(=O)C(NCCN(C)C)=C(C[C@@H](C)C[C@H](OC)[C@@H](O)[C@@H](C)C=C(C)[C@@H]1OC(N)=O)C2=O`, which activation is on record?
The activation was inactive: 14.6%.

`CN1[C@@H]2CCC[C@@H]1CC(NC(=O)c1nn(C)c3ccccc13)C2` (stereo not given in full) was tested. Which Potency did it give?
The Potency was inconclusive: 43.2 µM [activator, single point].

With `CC1(C)CC[C@]2(C(=O)O)CC[C@]3(C)C(=CCC4[C@@]5(C)C[C@@H](O)[C@H](O)[C@@](C)(CO)C5CC[C@]43C)C2C1` (stereo not given in full) as the molecule, how does the Potency read?
Its Potency is inconclusive: 0.0066 µM [activator, full curve].

For `COc1ccc([C@@H]2Sc3ccccc3NC(=O)[C@@H]2O)cc1`, which Potency is on record?
The Potency was inconclusive: 24.6 µM [activator, single point].

How did the activation turn out when `COC(=O)C(Cc1ccccc1)NC(=O)c1ccccc1` (stereo not given) was run?
The activation was inactive: 6.87%.

Which activation does the source give for `CN1CCN(c2c(F)cc3c(=O)c(C(=O)O)cn4c3c2SCC4)CC1` here?
The activation was inconclusive: -36.8% [activator].

With `CCOc1cc2ncc(C#N)c(Nc3ccc(OCc4ccccn4)c(Cl)c3)c2cc1NC(=O)C=CCN(C)C` as the molecule, how does the Potency read?
Its Potency is inconclusive: 2.73 µM [activator, partial curve, poor fit].

How did the Potency turn out when `CCc1cnn2c(NCc3ccc[n+]([O-])c3)cc(N3CCCCC3CCO)nc12` (stereo not given) was run?
Its Potency is inconclusive: 0.0239 µM [activator, full curve, poor fit].

Which activation does the source give for `CC(C)(C)NC(=O)[C@@H](c1cccnc1)N(C(=O)c1ccco1)c1ccc(C(C)(C)C)cc1` here?
The activation was inactive: 5%.

Which Potency does the source give for `CC(=O)Oc1ccc(C2(c3ccc(OC(C)=O)cc3)Oc3ccccc3NC2=O)cc1` here?
The Potency was inconclusive: 8.49 µM [activator, single point].

Which activation does the source give for `C[C@@H]1O[C@@H](O[C@H]2[C@H](O)[C@@H](C(=O)O)O[C@@H](O[C@H]3CC[C@@]4(C)C(CC[C@]5(C)C4CC=C4C6CC(C)(C)CC[C@]6(C(=O)O)CC[C@]45C)C3(C)C)[C@@H]2O[C@@H]2O[C@H](CO)[C@@H](O)[C@H](O)[C@H]2O)[C@H](O)[C@H](O)[C@H]1O` (stereo not given in full) here?
Its activation is inactive: -2.29%.

With `Cc1ncc(CCCN(C)C)cc1Nc1ncc2c(n1)-c1ccc(C(F)(F)F)cc1NC(=S)C2` as the molecule, how does the activation read?
The activation was inactive: 22.3%.

`C=C1C(=O)O[C@@H]2[C@H]1CC[C@H](C)C(CCC(=O)O)C2(C)O` (stereo not given in full) was tested. Which Potency did it give?
The Potency was active: 23.9 µM.

For `CCOC(=O)Nc1nc2ccccc2[nH]1`, which Potency is on record?
The Potency was inconclusive: 21.3 µM [activator, partial curve, poor fit].

How did the Potency turn out when `CC(=O)O[C@@H]1C=C2[C@H](CC[C@@]3(C)[C@@]2(O)CC[C@H]2Cc4c([nH]c5ccccc45)[C@@]23C)O[C@@H]1C(C)(C)O` was run?
The Potency was inconclusive: 1.47 µM [activator, single point].

How did the Potency turn out when `COC(=O)[C@H]1[C@H]2C[C@@H]3c4[nH]c5cc(OC)ccc5c4CCN3C[C@H]2C[C@@H](OC(=O)/C=C/c2ccc(O)c(OC)c2)[C@@H]1OC` was run?
Its Potency is inconclusive: 4.9 µM [activator, single point].

`CN1C[C@@H]2C[C@H]1CN2c1cc2c(cc1F)c(=O)c(C(=O)O)cn2C1CC1` was tested. Which activation did it give?
The activation was inconclusive: -36.8% [activator].

For `CC(C(=O)O)c1ccc(CC2CCCC2=O)cc1` (stereo not given), which activation is on record?
The activation was inactive: -10% and inactive: 11.7%.

`COc1ccc(/C=C/C(=O)O[C@H]2[C@H](O[C@H]3[C@@H]4C=CO[C@@H](O[C@@H]5O[C@H](CO)[C@@H](O)[C@H](O)[C@H]5O)[C@@H]4[C@@]4(CO)O[C@@H]34)O[C@@H](C)[C@H](O)[C@H]2OC(C)=O)cc1` was tested. Which activation did it give?
Its activation is inactive: -0.763%.

`CC(C)=CCCC(C)=CCCC(C)=CCCC(C)=CCCC(C)=CCCC(C)=CCCC(C)=CCCC(C)=CCCC(C)=CCO` was tested. Which activation did it give?
Its activation is inactive: 8.65%.

`C=C1C(=O)O[C@@H]2C[C@@]3(C)CCC[C@H](C)C3=C[C@H]12` was tested. Which Potency did it give?
Its Potency is active: 19 µM.
